Results on 5 compounds are retold here after PubChem BioAssay (Tox21).

Assay [1] can be described thus: A CellTox Green Cytotoxicity Assay to monitor cytotoxicity in HEK293 cells - 24 hour (AID 1224875). Note: nearly all actives have a fitted effect of over 45% in size. A digest of the protocol:
(§1)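 Cells (HEK293, 600/well) and dye reagent are dispensed together. After 5 h at 37 C, 23 nL compound is pinned in. Plates stay at 37 C for 40 h with fluorescence read at 0h, 8h, 16h, 24h, 32h and 40h.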

The nature of assay [2]: qHTS assay to identify small molecule antagonists of the progesterone receptor (PR) signaling pathway - cell viability counter screen (AID 1346798). Note: nearly all actives have a fitted effect of over 50% in size. A digest of the protocol:
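CellTiter-Glo luminescence; PR-UAS-bla HEK293T, 3,000 cells/well; compound + R5020, 16 hr, 37C/5% CO2; 30 min RT before read.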
On the technique in general: Quantitative high-throughput screening tests each substance at several concentrations.

A short description of assay [3]: qHTS assay to identify small molecule antagonists of the glucocorticoid receptor (GR) signaling pathway - cell viability counter screen (AID 720693). Note: nearly all actives have a fitted effect of over 55% in size.
Assay [4] can be described thus: qHTS assay to identify small molecule antagonists of the peroxisome proliferator-activated receptor gamma (PPARg) signaling pathway - cell viability counter screen (AID 743194). Note: nearly all actives have a fitted effect of over 55% in size. The gist of the method:
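Cytotoxicity counter screen in PPARg-bla HEK293H cells, same wells as reporter assay. Compounds plus 50 nM rosiglitazone (final) for 17 h at 37 C, then viability read by CellTiter-Glo luminescence.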

Assay [5] can be described thus: A CellTox Green Cytotoxicity Assay to monitor cytotoxicity in HEK293 cells - 16 hour (AID 1224888). Note: nearly all actives have a fitted effect of over 35% in size. The gist of the method:
as §1

Assay [6] can be described thus: qHTS assay to identify small molecule antagonists of the thyroid receptor (TR) signaling pathway (AID 743065). Note: nearly all actives have a fitted effect of over 55% in size. A digest of the protocol: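 GH3.TRE-Luc rat pituitary cells (two TREs driving luciferase) were dosed with compound, then stimulated with 1 nM T3 (final) for 23.5 h at 37 C. ONE-Glo luminescence was the read-out, with CellTiter-Fluor fluorescence as the cytotoxicity counter-screen.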

Inconclusive results are not listed. Calls come from the whole dose curve; as a rule, active = well fitted curve in the direction sought with a large enough effect in the repeat runs; inconclusive = weak or mixed curves; inactive = no such curve, though single readings can be large; an effect the other way counts as inactive or inconclusive. More than one record can exist for a structure, and the calls need not agree. Certain results were filed several times, with different values. They are shown here; other results are not. An entry can have further records. Values that stand side by side are repeats across runs, samples, wells, individuals or studies. Marks in square brackets tell the records apart. The letters are not those of the source and start again with each entry.
Potency is the fitted concentration of half-maximal effect.

Regarding `Brc1ccc(Oc2ccccc2)cc1`, the Potency entry in assay [1] is “active: 50.2 µM [sample A] and inactive [sample B]”; in assay [2], “active: 55.8 µM [sample A] and inactive [sample B]”.

As to `O=C(CCl)c1ccc(Cl)cc1Cl`, the Potency result in assay [3] is “active: 6.01 µM [sample A] and active: 13.8 µM [sample B] and inactive [sample C]”; in assay [4] it was “inactive [sample A] and active: 23.7 µM [sample B]”.

Regarding `CCOP(=S)(OCC)Oc1nc(Cl)c(Cl)cc1Cl`, the Potency entry is “active: 43.8 µM [sample A] and inactive [sample B]” in assay [1]; “active: 49.1 µM [sample A] and inactive [sample B]” in assay [5].

`C(=NC1CCCCC1)=NC1CCCCC1`: the Potency result in assay [6] was “inactive [sample A] and active: 9.69 µM [sample B]”.

`Cn1sc(Cl)cc1=O`: the Potency result in assay [6] was “inactive [sample A] and active: 61.1 µM [sample B]”.
